In all, about 81,000 sequences were measured (“one-hybrid fitness for binding NBS DNA”: median about -0.1, highest 2% from about 0.36 on). The list shows a part of the results.
B1: Caulobacter ParB omega fusion; a variant is named by its letters at X, in order, B8GW30 (parent)
chain: MESVVVGEPGMSEGRRGLGRGLSALLGEVDAAPAQAPGEQLGGSREAPIEILQRNPDQPRRTFREEDLEDLSNSIREKGVLQPILVRPSPDTAGEYQIVAGERAWRAAQRAGLKTVPIMVRELDDLAVLEIGIIENVQRADLNVLEEALSYKVLMEKFERTQENIAQTIGKSXSHVANXMRLLXLPDEVQSYLVSGELTAXHARAIAAAADPVALAKQIIEGGLSVRETEALARKAPNLSAGKSKGGRPPRVKDTDTQALESDLSSVLGLDVSIDHRGSTGTLTITYATLEQLDDLCNRLTRGI

Variants of: B1
Test: one-hybrid fitness for binding NBS DNA (the Noc-binding site; scaled: cognate 1, non-cognate 0); higher = stronger binding
Settings: with NBS DNA site
How it was run: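 Caulobacter ParB libraries with four specificity codons randomised were screened by bacterial one-hybrid selection in the E. coli USO strain, using a HIS3 reporter whose site lies 19 bp from the promoter. Selection ran for 48 hours at 37°C on M9 lacking histidine, with 0.1 mM IPTG and 5 mM 3-AT. Plasmids were Illumina-sequenced before and after selection, three replicate libraries were pooled, and variants with under 10 reads were dropped. Fitness is the log change in each variant's read ratio to wild type, rescaled against the cognate and non-cognate sites.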

Row | Variant | one-hybrid fitness for binding NBS DNA
1 | AIWV | ≤ 0.2
2 | NGEY | ≤ 0.2
3 | RNIY | ≤ 0.2
4 | SPAC | ≤ 0.2
5 | YCLC | ≤ 0.2
6 | MVNF | ≤ 0.2
7 | YGKV | ≤ 0.2
8 | RLNL | ≤ 0.2
9 | CTHE | ≤ 0.2
10 | ALKS | ≤ 0.2
11 | FAPI | ≤ 0.2
12 | EGRL | ≤ 0.2
13 | MQIV | ≤ 0.2
14 | PDSW | ≤ 0.2
15 | GGIC | ≤ 0.2
16 | PHAT | ≤ 0.2
17 | FSHM | ≤ 0.2
18 | YAPI | ≤ 0.2
19 | QCKF | 0.387
20 | LHTR | ≤ 0.2
21 | RMIV | ≤ 0.2
22 | AKYL | ≤ 0.2
23 | AHRN | ≤ 0.2
24 | IVNQ | ≤ 0.2
25 | CNVE | ≤ 0.2

Row | Variant | one-hybrid fitness for binding NBS DNA
26 | LVGV | ≤ 0.2
27 | DADN | ≤ 0.2
28 | GLTS | ≤ 0.2
29 | QPDC | ≤ 0.2
30 | KRLC | ≤ 0.2
31 | KPVR | ≤ 0.2
32 | SSTS | ≤ 0.2
33 | PITY | ≤ 0.2
34 | HKGL | ≤ 0.2
35 | SSDF | ≤ 0.2
36 | YARQ | ≤ 0.2
37 | QHKC | 0.367
38 | SCSE | ≤ 0.2
39 | AIVI | ≤ 0.2
40 | TRIR | ≤ 0.2
41 | LYNR | ≤ 0.2
42 | TTMT | ≤ 0.2
43 | DESV | ≤ 0.2
44 | FTKR | 0.263
45 | RYLW | ≤ 0.2
46 | NTPY | ≤ 0.2
47 | PVVT | ≤ 0.2
48 | QSAE | ≤ 0.2
49 | FIGR | ≤ 0.2
50 | WSAT | ≤ 0.2

Row | Variant | one-hybrid fitness for binding NBS DNA
51 | PFYD | ≤ 0.2
52 | PDSY | ≤ 0.2
53 | GKVW | ≤ 0.2
54 | KPPL | ≤ 0.2
55 | CQAW | ≤ 0.2
56 | NAGP | ≤ 0.2
57 | HCME | ≤ 0.2
58 | SAWL | ≤ 0.2
59 | LFEY | ≤ 0.2
60 | RTDV | ≤ 0.2
61 | TSDI | ≤ 0.2
62 | SIHL | ≤ 0.2
63 | QTAA | 0.44
64 | TNLP | ≤ 0.2
65 | VSGS | ≤ 0.2
66 | VGPR | ≤ 0.2
67 | RKHV | ≤ 0.2
68 | YCQT | ≤ 0.2
69 | TRMD | ≤ 0.2
70 | QAYV | ≤ 0.2
71 | GLFR | ≤ 0.2
72 | LYVQ | ≤ 0.2
73 | IDYS | ≤ 0.2
74 | PRIF | ≤ 0.2
75 | RIKQ | ≤ 0.2

Row | Variant | one-hybrid fitness for binding NBS DNA
76 | YNLW | ≤ 0.2
77 | WGHV | ≤ 0.2
78 | AISH | ≤ 0.2
79 | LMSQ | ≤ 0.2
80 | VEGS | ≤ 0.2
81 | MQNA | ≤ 0.2
82 | KLEF | ≤ 0.2
83 | EGVT | ≤ 0.2
84 | HTVN | ≤ 0.2
85 | TSCM | ≤ 0.2
86 | PCLA | ≤ 0.2
87 | QPHI | ≤ 0.2
88 | AEYE | ≤ 0.2
89 | FCSN | ≤ 0.2
90 | RKKE | ≤ 0.2
91 | ARER | ≤ 0.2
92 | ILPL | ≤ 0.2
93 | FWRR | 0.342
94 | TSCK | ≤ 0.2
95 | MSED | ≤ 0.2
96 | QRQC | 0.362
97 | CVHI | ≤ 0.2
98 | GTRT | ≤ 0.2
99 | VHGI | ≤ 0.2
100 | DSSG | ≤ 0.2

Row | Variant | one-hybrid fitness for binding NBS DNA
101 | MSTL | ≤ 0.2
102 | HHKP | ≤ 0.2
103 | YYKT | ≤ 0.2
104 | FPRS | ≤ 0.2
105 | NDKL | ≤ 0.2
106 | WADS | ≤ 0.2
107 | LINR | ≤ 0.2
108 | HILV | ≤ 0.2
109 | VGLM | ≤ 0.2
110 | QYKR | 0.99
111 | RMGL | ≤ 0.2
112 | TWKK | ≤ 0.2
113 | RRGK | 0.215
114 | TFVH | ≤ 0.2
115 | PTHV | ≤ 0.2
116 | DGMG | ≤ 0.2
117 | IRSP | ≤ 0.2
118 | PCTM | ≤ 0.2
119 | TGEM | ≤ 0.2
120 | TRNH | ≤ 0.2
121 | NLKG | ≤ 0.2
122 | PYCG | ≤ 0.2
123 | VSSA | ≤ 0.2
124 | RKKV | 0.277
125 | SKIC | ≤ 0.2

Row | Variant | one-hybrid fitness for binding NBS DNA
126 | YAHC | ≤ 0.2
127 | EWVR | ≤ 0.2
128 | QMSI | ≤ 0.2
129 | SPNQ | ≤ 0.2
130 | PWFF | ≤ 0.2
131 | SVHK | ≤ 0.2
132 | RILF | ≤ 0.2
133 | GLDM | ≤ 0.2
134 | HKLL | ≤ 0.2
135 | YACS | ≤ 0.2
136 | EWPG | ≤ 0.2
137 | CAAQ | ≤ 0.2
138 | TSFG | ≤ 0.2
139 | YPIW | ≤ 0.2
140 | DEPI | ≤ 0.2
141 | PQNT | ≤ 0.2
142 | TESS | ≤ 0.2
143 | RVQT | 0.438
144 | PTIP | ≤ 0.2
145 | QHQY | ≤ 0.2
146 | SYEC | ≤ 0.2
147 | SHDC | ≤ 0.2
148 | LNAY | ≤ 0.2
149 | HYLD | ≤ 0.2
150 | KMLF | ≤ 0.2

Row | Variant | one-hybrid fitness for binding NBS DNA
151 | TTKP | ≤ 0.2
152 | DWSS | ≤ 0.2
153 | HQAP | ≤ 0.2
154 | KVTN | ≤ 0.2
155 | GAQG | ≤ 0.2
156 | SLLQ | ≤ 0.2
157 | QCKV | 0.479
158 | PSWE | ≤ 0.2
159 | ETYG | ≤ 0.2
160 | TINS | ≤ 0.2
161 | TCHN | ≤ 0.2
162 | CIEG | ≤ 0.2
163 | MVLG | ≤ 0.2
164 | IDSV | ≤ 0.2
165 | MHWG | ≤ 0.2
166 | SHRR | ≤ 0.2
167 | APTA | ≤ 0.2
168 | SGPG | ≤ 0.2
169 | FVYW | ≤ 0.2
170 | HGNI | ≤ 0.2
171 | DFGA | ≤ 0.2
172 | DPVF | ≤ 0.2
173 | SMPR | ≤ 0.2
174 | WVWF | ≤ 0.2
175 | RFYV | ≤ 0.2

Row | Variant | one-hybrid fitness for binding NBS DNA
176 | FIHV | ≤ 0.2
177 | KKQR | 0.281
178 | VLQL | ≤ 0.2
179 | IPAY | ≤ 0.2
180 | RKHG | ≤ 0.2
181 | LSVN | ≤ 0.2
182 | KEWT | ≤ 0.2
183 | TRKY | 0.278
184 | AHPG | ≤ 0.2
185 | PKCK | ≤ 0.2
186 | NTIY | ≤ 0.2
187 | AWKR | ≤ 0.2
188 | ESQM | ≤ 0.2
189 | RQQS | 0.429
190 | QYLG | ≤ 0.2
191 | HDAR | ≤ 0.2
192 | KYSA | ≤ 0.2
193 | TCPY | ≤ 0.2
194 | GYPS | ≤ 0.2
195 | KRMI | ≤ 0.2
